Measurements from PubChem BioAssay AID588855 (National Center for Advancing Translational Sciences (NCATS), 2011).
The campaign covered roughly 410,000 compounds. About 5,000 (1.2%) were called active. This list was built around the results that the source calls inconclusive (neither active nor inactive); the mix of calls is not that of the screen. The call rests on the fitted dose curve; in most records, active means well fitted inhibition curve with a large enough effect; inconclusive means small, poorly fitted or top-dose-only effect; inactive means no such curve, though single readings can be large or run the other way. Potencies beside an inconclusive call are fits to weak or partial responses and may not hold up.

Experiment: qHTS for Inhibitors of TGF-b; further: nearly all actives have a fitted effect of over 65% in size
Details: HepG2 CAGA-GFP TGF-b/SMAD3 reporter, GFP fluorescence, 18 h, TGF-beta stimulated, 500 pg/mL final; series mostly up to 46.1 µM
In short: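 GFP signal (ex488/em500-530) from TGF-beta-stimulated HEPG2 CAGA-GFP cells, 500 pg/mL final, 18 h at 37 degrees C in DMEM plus 1% FBS, normalized to unstimulated and DMSO-stimulated controls.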
Potency means the concentration at half of the fitted maximal effect; tags describe the fitted curve by direction and shape.

Structure (SMILES)	Potency
Cc1c2cnn(-c3ccccc3)c(=O)c2c(C)n1CC(=O)Nc1ccccc1Br	inconclusive: 0.112 µM [inhibitor, full curve, poor fit]
CN(C)S(=O)(=O)c1cccc(C(=O)Nc2ccccc2[N+](=O)[O-])c1	inconclusive: 17.8 µM [inhibitor, single point]
CCOc1cc2c3c(c1)C(C)CC(C)(C)N3C(=O)C2=O (configuration not stated)	inactive
COc1cc2c(cc1OC)C(c1ccc3c(c1)OCO3)CC(=O)N2 (configuration not stated)	inactive
CC(C)c1ccc(-n2cnn(-c3ncccc3[N+](=O)[O-])c2=O)cc1	inactive
O=c1oc2ccc(Cl)cc2cc1-c1ccccc1	inactive
CCSC(=O)N1CCN(/[N+]([O-])=N/Oc2ccc([N+](=O)[O-])cc2[N+](=O)[O-])CC1	inconclusive: 14.1 µM [inhibitor, single point]
CCCOc1ccc(Cc2nc(N)nc(N)n2)cc1	inconclusive: 2.82 µM [inhibitor, full curve, poor fit]
CCCCNC(=O)CSc1nc2ccc(N3CCOCC3)cc2c(=O)n1CCc1ccccc1	inactive
CC(=O)c1ccc(NC(=O)c2cnc(N3CCCC3)nc2C)cc1	inconclusive: 35.5 µM [inhibitor, single point]
COc1ccc(C)cc1S(=O)(=O)Nc1cccc(Cl)c1	inconclusive: 35.5 µM [inhibitor, single point]
Cc1ccc(-n2c(-c3ccc(Br)cc3)nc3c(cnn3-c3ccccc3)c2=O)cc1	inconclusive: 17.8 µM [inhibitor, single point]
COc1ccccc1N1CCN(c2ncc3c(n2)CCN(Cc2ccccc2C)C3)CC1	inconclusive: 2.24 µM [inhibitor, full curve, poor fit]
Cc1ccc(OCC(=O)OCc2cc(=O)n3ccsc3n2)cc1C	inactive
Cc1nn(-c2ccccc2)c(-n2cccc2)c1C(=O)NCCCN1CCN(c2ccccc2F)CC1	inconclusive: 10 µM [inhibitor, partial curve, poor fit]
CCN(CC)S(=O)(=O)c1cc(NC(=O)CNc2cccc(S(=O)(=O)N3CCCC3)c2)ccc1C	inconclusive: 15.8 µM [inhibitor, partial curve, poor fit]
Cn1nnc2c[n+](CC(=O)c3ccc(Cl)cc3)cc(Br)c21	inconclusive: 35.5 µM [inhibitor, single point]
CCCCNC(=O)C(C)N(CCN(C)C)C(=O)CCCN1C(=O)NC(c2ccc([N+](=O)[O-])cc2)C(C(=O)OCc2ccccc2)=C1C (configuration not stated)	inconclusive: 35.5 µM [inhibitor, single point]
COc1ccc(Br)cc1C1C2C=CCCC2(C)C(=O)N1Cc1ccccc1 (configuration not stated)	inconclusive: 35.5 µM [inhibitor, single point]
N#C/C(=C(/O)c1ccc(F)cc1)c1nc2ccccc2s1	inconclusive: 35.5 µM [inhibitor, single point]
COc1ccc(Cl)c2sc(N(CCN(C)C)C(=O)CCS(=O)(=O)c3ccc(C)cc3)nc12	inconclusive: 15.8 µM [inhibitor, single point]

Structure (SMILES)	Potency
CCc1nnc(N/N=C/c2c(Cl)cccc2Cl)n1N	inconclusive: 12.6 µM [inhibitor, partial curve, poor fit]
COc1ccc(NC(=O)C(Cc2ccccc2)NS(=O)(=O)c2ccc3c(c2)oc(=O)n3C)c(OC)c1 (configuration not stated)	inactive
O=[N+]([O-])c1ccccc1OCCCOc1cccc2cccnc12	inconclusive: 20 µM [inhibitor, single point]
COc1cc(/C=C/C(=O)OC2CC3CCC2(C)C3(C)C)ccc1O (configuration not stated)	inconclusive: 35.5 µM [inhibitor, single point]
CC(=O)c1sc(NC(=O)CN2C(=O)C3CC=CCC3C2=O)nc1-c1ccccc1 (configuration not stated)	inconclusive: 35.5 µM [inhibitor, single point]
Fc1cccc(F)c1/C=N/NC(=S)Nc1cccnc1	inactive
CC(=O)N1c2ccc(S(=O)(=O)NCCC(=O)NC3CCCC(C)C3C)cc2CC1C (configuration not stated)	inconclusive: 10 µM [inhibitor, partial curve]
Cc1ccc2c(CNCCc3ccco3)c(C(=O)O)n(Cc3ccc(F)cc3)c2c1	inconclusive: 35.5 µM [inhibitor, partial curve, poor fit]
FC(F)(F)c1nnc(Nc2ccc(Cl)cc2)s1	inconclusive: 35.5 µM [inhibitor, single point]
COc1ccc2nc(SCC(=O)N(C)C3CCCCC3)c(C#N)cc2c1	inconclusive: 5.62 µM [inhibitor, partial curve, poor fit]
CCc1ccc(OCc2n[nH]c(=S)n2Cc2ccccc2)cc1	inconclusive: 35.5 µM [inhibitor, single point]
O=C(c1ccco1)N1CCN(Cc2cccc([N+](=O)[O-])c2)CC1	inconclusive: 20 µM [inhibitor, partial curve, poor fit]
COCCNC(=O)CCCn1c(=O)c2ccccc2n(Cc2ccccc2C#N)c1=O	inactive
N#CC1=C(N)NC(SCC(=O)Nc2ccccc2)=C(C#N)C12CCCC2	inconclusive: 8.91 µM [inhibitor, partial curve]
O=S(=O)(c1ccccc1)N1CCN(c2cc(-c3ccccc3)nc3ncnn23)CC1	inactive
CCOC(=O)Cc1csc(NC(=O)c2cc(-c3ccncc3)nc3ccccc23)n1	inactive
CC(=O)Nc1ccc(S(=O)(=O)N2CCC(n3c(C)nc4cccnc43)CC2)cc1	inactive
CCOC(=O)c1c(C)oc2nc(C)nc(NCCc3ccc(OCC)cc3)c12	inconclusive: 1.78 µM [inhibitor, full curve]
CC(C)(C)c1cc(C(c2cccnc2)N2CCN(CCO)CC2)cc(C(C)(C)C)c1O (configuration not stated)	active: 7.94 µM
CC(C)Oc1ccc(C(=O)N2CCC(c3nc4ccccc4s3)CC2)cc1	inconclusive: 22.4 µM [inhibitor, partial curve, poor fit]
CCC(=O)Nc1ccc(Oc2ccc(NC(=O)CC)c(NC(=O)CC)c2)cc1	inactive
